Out of some 270,000 compounds screened, about 20 (0.007%) were called active. This list was built around the results that the source calls inconclusive (neither active nor inactive); the mix of calls is not that of the screen. Calls come from the whole dose curve; as a rule, active = well fitted inhibition curve with a large enough effect; inconclusive = small, poorly fitted or top-dose-only effect, or effect the other way; inactive = flat fitted curve, though single readings scatter. A potency beside an inconclusive call is a rough fit, not a confirmed value.
Each compound was assayed against Galactokinase (Homo sapiens) (UniProt P51570) (assay: qHTS Assay for Inhibitors of Human Galactokinase (GALK)). Settings: Purified GALK, Kinase-Glo residual ATP luminescence; series mostly up to 57.5 µM.
How it was run: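 Compounds were pin-transferred into ATP buffer (35 uM final), then GALK plus galactose (5 nM, 100 uM final) was added. After 1 h at room temperature, Kinase-Glo Plus was added and luminescence read after 10 min.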
Potency is the fitted concentration of half-maximal effect; tags give direction and shape of the fitted curve.

Chain of UniProt P51570 (P51570 whole entry, looked up): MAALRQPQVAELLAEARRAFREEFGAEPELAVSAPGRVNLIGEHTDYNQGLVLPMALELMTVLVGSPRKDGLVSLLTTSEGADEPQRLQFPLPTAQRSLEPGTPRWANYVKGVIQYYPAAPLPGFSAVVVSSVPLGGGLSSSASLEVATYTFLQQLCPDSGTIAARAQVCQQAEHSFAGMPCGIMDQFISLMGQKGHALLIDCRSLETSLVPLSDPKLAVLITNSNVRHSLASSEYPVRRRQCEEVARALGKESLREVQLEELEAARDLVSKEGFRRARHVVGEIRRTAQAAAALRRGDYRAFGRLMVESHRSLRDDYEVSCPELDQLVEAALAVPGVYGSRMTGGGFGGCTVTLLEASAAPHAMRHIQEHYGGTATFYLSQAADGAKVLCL

Row | SMILES | Potency
1 | Cc1[nH][nH]c(=O)c1C(c1ccc(-c2ccc(Cl)c(C(=O)O)c2)o1)c1c(C)[nH][nH]c1=O | inconclusive: 39.8 µM [falling, single point]
2 | O=C1CCCC2=C1C1(CCCCC1)N=C(Nc1nc3ccccc3o1)N2 | active: 22.4 µM
3 | Cc1nn(-c2ccccc2)c(Cl)c1/C=N/Nc1ccc(S(=O)(=O)Nc2ccccc2C(=O)O)cc1[N+](=O)[O-] | inconclusive: 39.8 µM [falling, single point]
4 | CC(C)Cc1ccc(S(=O)(=O)N2CCOCC2)cc1 | inactive
5 | COc1cc2c(cc1OC)-c1cc(NC3CC3)nc(=O)n1CC2 | inactive
6 | O=C(NCC(=O)N(c1ccc(F)cc1)C(C(=O)NC1CCCC1)c1cccnc1)c1cccs1 (centres undefined) | inactive
7 | CCS(=O)(=O)C1=NN2C(=N)/C(=C\c3ccc(OC(=O)c4ccco4)c(Br)c3)C(=O)N=C2S1 | inconclusive: 39.8 µM [falling, single point]
8 | CCCCn1c(NC(=O)c2ccccc2)c(C#N)c2nc3ccccc3nc21 | inconclusive: 31.6 µM [falling, single point]
9 | Cc1ccc2nc(N/N=C/c3ccco3)cc(C)c2c1 | inactive
10 | Nc1ccc2c(c1)C(=O)C(=O)c1ccccc1-2 | active: 6.31 µM
11 | O=c1[nH]c(/C=C/c2ccc([N+](=O)[O-])cc2)c([N+](=O)[O-])c(=O)[nH]1 | inconclusive: 31.6 µM [falling, single point]
12 | O=C(O)CC(CCc1ccccc1)OC1OC(CO)C(O)C(O)C1O (centres undefined) | inconclusive: 39.8 µM [falling, single point]
13 | CCOC(=O)/C=C(\C)Sc1cc(O)c2ccccc2c1O | inconclusive: 31.6 µM [falling, single point]
14 | O=C(COc1ccccc1/C=C\c1[nH]c(=O)[nH]c(=O)c1[N+](=O)[O-])Nc1ccccc1 | inconclusive: 25.1 µM [falling, single point]
15 | O=C1NN(c2ccc(Br)cc2)C(=O)/C1=C\c1ccc(O)cc1O | inconclusive: 39.8 µM [falling, single point]
16 | O=C(O)c1ccc(NC2=C/C(=N/S(=O)(=O)c3ccccc3)c3ccccc3C2=O)cc1 | inconclusive: 28.2 µM [falling, single point]
17 | COC(=O)c1ccc(CC(=O)c2c(C)cc(O)cc2O)o1 | inactive
18 | O=C(Nc1ccc(-c2nc3cccnc3s2)cc1)c1ccc(Br)o1 | inconclusive: 6.31 µM [falling, single point]
19 | CN(C)c1ccc(/C=N/NC(=O)c2ccnn2C)cc1 | inconclusive: 15.8 µM [rising, partial curve]
20 | O=C(O)CCC(=O)Nc1ccccc1Oc1ccccc1 | inactive
21 | O=[N+]([O-])c1cc([N+](=O)[O-])c2oc(-c3ccccc3)c(Br)c2c1O | inconclusive: 39.8 µM [falling, single point]
22 | CC1(C)CC(=O)C2=C(C1)NC(Nc1nc3ccccc3o1)=NC21CCCC1 | inconclusive: 25.1 µM [falling, single point]
23 | O=C(O)C[C@@H]1C(=O)O[C@@H]2C(COC(=O)c3cc(O)c(O)c(O)c3)O[C@@H](OC(=O)c3cc(O)c(O)c(O)c3)[C@@H](OC(=O)c3cc(O)c(O)c4c3[C@H]1[C@H](O)C(=O)O4)[C@H]2OC(=O)c1cc(O)c(O)c(O)c1 (some centres undefined) | active: 14.1 µM
24 | Cc1ccc(C(=O)O/N=C(\N)c2ccccn2)c(C)c1 | inconclusive: 8.91 µM [rising, partial curve]

Reference: PubChem BioAssay AID1868 (National Center for Advancing Translational Sciences (NCATS), 2009)
